Sequences and labels used below:
B1: LINE1-full (parent)
chain: UACGUAGGUGGUUUUCCCCUGAUAGUGCUAAGGGGGCCUGGAAGUUUGGACUGGGCAGAGCUCAACACAGCGUGGCAAAGUGGCUGUGGCUAGACUGCCUCUCUGGAUUCCUCGUCACUCAGCAGGGCAUCUCUGAGAGAAAUGCC

The source gives no read counts; variants with many changes may rest on few reads.

Variants of B1 are the subject of this data set. Kind of data set: self-cleavage, relative activity (ratio to wild type); higher = more cleavage; in vitro, sequencing; the parent is a self-cleaving ribozyme.
Take A22G U26C U104G U143A: the self-cleavage was determined as 0.98.

For U13A A79G A141G, the self-cleavage turned out to be 0.93.

Turning to U1C A57U U62G A107G, the self-cleavage was 0.

Take A57U A59G A94G: the self-cleavage came to 0.

As for U102C A107G A138G, the self-cleavage was 2.16.

In the case of G89A U102C U119C, the self-cleavage was 0.03.

Take C84U U130C U134C: the self-cleavage was found to be 0.17.

With G8A U119G A124G U132C, the self-cleavage amounted to 1.84.

For the variant G74A U100C U143C, the self-cleavage turned out to be 1.48.

For U12C U47C U108C, the self-cleavage is 2.04.

In the case of A43G U112A A129U, the self-cleavage is 1.43.

Turning to A30U A129G U132A, the self-cleavage is 1.81.

In the case of U85C G106A A136G, the self-cleavage came out at 0.26.

Turning to G34U A124G A138G, the self-cleavage came out at 1.48.

In the case of U1C U108C A142G, the self-cleavage was 1.01.

As for U13C U45A G127A U143C, the self-cleavage stood at 0.8.

As for A30U U46C A78G U132C U134C A140U, the self-cleavage is 2.21.

Regarding U46C A64U U73A U119C, the self-cleavage is 0.81.

With U13C U115C U143A, the self-cleavage is 0.92.

Turning to U13C U20A U47C A129U A140G, the self-cleavage was determined as 0.86.

Turning to A22G U39A C90U, the self-cleavage amounted to 0.04.

Take U15C A42G C101U U130A U134C: the self-cleavage is 1.85.

In the case of A31U G33U G35U U115C, the self-cleavage amounted to 1.05.

As to A22G A31C C37G, the self-cleavage was determined as 0.8.

Regarding G10A A59G U96A G105A U115A, the self-cleavage came out at 0.

Take U9C U62A C90U: the self-cleavage stood at 0.01.

On to U9A G10A U112C, for which the self-cleavage stood at 1.18.

With U23C U112A A121C A124U, the self-cleavage was found to be 1.56.

Regarding U5C U14C U26C U39C G127A A138G, the self-cleavage is 1.06.

Take U26G U46C A140G: the self-cleavage was determined as 1.31.

Turning to A42G A65G U115C, the self-cleavage was 0.

In the case of U29C C113U A140G, the self-cleavage is 0.72.

For the variant U100C U112C U130A A138G, the self-cleavage is 1.02.

For the variant A6G U13C U46A A136G, the self-cleavage amounted to 1.28.

With A79G A94U U115A, the self-cleavage worked out at 0.46.

For the variant C19A A69G U87A U100C C146U, the self-cleavage was determined as 0.

For A92G U100C C103A A140G, the self-cleavage stood at 0.14.

Consider A42G G48A A50G, for which the self-cleavage is 0.88.

For U9C A67C A92U, the self-cleavage is 0.04.

As for G41A U52A U73A A124G U132C, the self-cleavage was 1.1.

With U9C U14C U108C A142G, the self-cleavage is 0.8.

Turning to A42G A57U A117G, the self-cleavage stood at 0.08.

Consider A42U U81C A124G, for which the self-cleavage is 0.62.

As to A6U U119C A140G, the self-cleavage worked out at 2.14.

G36U A42G U112C: the self-cleavage was 0.82.

For U1A A22U C111U, the self-cleavage worked out at 1.45.

As for U14G U45C A124G, the self-cleavage is 0.51.

In the case of G72U U102A A107U C113U, the self-cleavage was 2.55.

U45C U104A U112G A140G: the self-cleavage is 2.76.

In the case of A77G A117U A138G, the self-cleavage turned out to be 0.52.

C90U G105A U115C: the self-cleavage came out at 0.02.

With G55A A121G A141G, the self-cleavage stood at 0.22.

U115C A117G A129G: the self-cleavage was found to be 2.63.

Regarding G36C U47C G58A U62C C68U U104A A124U, the self-cleavage turned out to be 0.03.

On to U47C G55U U104A A141G, for which the self-cleavage came out at 0.1.

Consider U20A U46C U91C C98U, for which the self-cleavage was 0.22.

As to A6U A92C U112A C145G, the self-cleavage amounted to 0.06.

With U14C A42G A43U U102C A107G, the self-cleavage was found to be 0.92.

U15C G41U A79G G88A: the self-cleavage was found to be 0.02.

As for A31G G32A A57G, the self-cleavage worked out at 0.4.

As to A22G G74A U104C U132C, the self-cleavage was 1.44.

For the variant U12A U13C U100C A117U A142G, the self-cleavage came to 2.1.

A92G A121U A142G: the self-cleavage amounted to 0.

On to U39A U81C A136U, for which the self-cleavage was 1.22.

Consider U46C A121U U132A, for which the self-cleavage was 1.65.

As to A22G U73C A136G A142G, the self-cleavage came to 0.48.

Consider U15C U91C U134G A141G, for which the self-cleavage turned out to be 1.12.

With U26C A69G U104C C123G A136G, the self-cleavage was found to be 1.02.

As to U29C U47C U102C, the self-cleavage came to 1.84.

For A6G U73A U112A, the self-cleavage was determined as 1.23.

Turning to U20A U47G A65G U132C, the self-cleavage is 0.08.

As to U13C A42G A65G U130C A136G U143C, the self-cleavage was determined as 0.

As to U45G U73A U132A, the self-cleavage stood at 1.29.

As to U39C A77G U134C, the self-cleavage came out at 2.9.

For A22C G34U A138G, the self-cleavage came out at 2.06.

Turning to A22G U52A A77U, the self-cleavage worked out at 1.41.

Consider A6G U20A U91C A94U, for which the self-cleavage was 0.41.

Regarding U20C A77U U85A U100C U112A U115C C120U, the self-cleavage amounted to 0.18.

For U5C A31U U52A U109A A124G, the self-cleavage was 0.61.

In the case of U12G A78U A94G A141G, the self-cleavage amounted to 0.99.

Take U39A A117G A141G: the self-cleavage worked out at 1.82.

On to U12C U47C U102C A142G, for which the self-cleavage is 1.47.

With A6G A69U A78U A142G, the self-cleavage turned out to be 0.22.

U112A A124G C131U A136U: the self-cleavage stood at 0.87.

Regarding U9A U39C A43U U47A A78G U108A, the self-cleavage was 0.62.

As for U45C A50C C113A A117G, the self-cleavage came out at 2.13.

Consider A30G G33A G35A G53A A92G, for which the self-cleavage is 0.02.

On to U14A A92U U104A, for which the self-cleavage stood at 0.63.

As to U39A C113U A121G, the self-cleavage was 0.88.

U12G U62A U109C A141G: the self-cleavage stood at 0.

As to A6U U14C A65U, the self-cleavage worked out at 0.57.

In the case of U5C A42G A43G U85A, the self-cleavage was determined as 0.69.

For U23A G34A A79U A141G, the self-cleavage amounted to 1.65.

A24G G35C U119C: the self-cleavage is 1.66.

On to A22G G35A A57G U85A U115C A136U A141U, for which the self-cleavage came to 0.

With U5C U20G U115C, the self-cleavage is 0.35.

Take A22G A64G A107U U134C: the self-cleavage was found to be 0.29.

Turning to U81A U96C U104C U115C, the self-cleavage was 0.4.

With U85C U108C A136G G137A, the self-cleavage is 0.

As for U29C U46C A78G U100C, the self-cleavage worked out at 0.92.

As to U96A U102C A140G, the self-cleavage was determined as 0.08.

Consider A124G C128G A140G, for which the self-cleavage stood at 0.19.

U14A U104C A136G: the self-cleavage came out at 2.3.

Consider U12C U26A C71U U102G U104C G125A, for which the self-cleavage was found to be 1.02.

As for G40A A77G A121G, the self-cleavage amounted to 2.12.

Regarding U26C U47C U119A, the self-cleavage was 1.45.

Consider U9C G122C U134A, for which the self-cleavage was 2.4.

In the case of A78U U112A A124U A136G A141G, the self-cleavage turned out to be 2.53.

Take A59U U112C A142U: the self-cleavage turned out to be 0.58.

On to G93A U108A A138G, for which the self-cleavage was determined as 0.03.

With G60A G93A C98A A140G, the self-cleavage was found to be 0.

Regarding G33U U96C A136G, the self-cleavage amounted to 0.1.

For the variant U39A A129G A141U, the self-cleavage turned out to be 2.21.

Take A50U A57G U85A A141C: the self-cleavage was determined as 0.

A50G A77G C133A A138U: the self-cleavage came to 1.84.

As to G32A C66U U104A A141G, the self-cleavage was 0.05.

With A59G A94C A142G, the self-cleavage amounted to 0.

G72A U91C A94G U104C A136G: the self-cleavage was 0.16.

A2G A24G A57G A67G G114A: the self-cleavage was found to be 0.92.

For A2G U73A A94G, the self-cleavage stood at 1.02.

On to A57G A79G U132C, for which the self-cleavage came to 1.99.

In the case of U62A G86A U104C U143C, the self-cleavage came out at 0.03.

For C51G U85A U102C A141G, the self-cleavage is 0.09.

As for A22U U47G U62C, the self-cleavage is 0.05.

As for U12G U47C A64U A140G, the self-cleavage stood at 0.75.

A117U U134A A142G: the self-cleavage was determined as 0.69.

For A92U U108C U119C, the self-cleavage was 1.72.

On to A65U G93U A124G, for which the self-cleavage is 0.02.

On to U9C C28U A77U U102A, for which the self-cleavage is 1.02.

A22G C99U U119G: the self-cleavage turned out to be 0.81.

In the case of U20A G34A U143C, the self-cleavage is 2.02.

U12A U29C A79G U115A: the self-cleavage was found to be 0.97.

U1C A24G A31U A65U: the self-cleavage is 0.54.

In the case of A79G U130C A138U, the self-cleavage was determined as 1.47.

Regarding C68U A77U U115A U119C, the self-cleavage came out at 0.23.

In the case of U23A U102C A129G A136C, the self-cleavage was determined as 1.53.

For A43U U108A A141G, the self-cleavage worked out at 1.67.

Consider U47G U112C A140G, for which the self-cleavage turned out to be 1.07.

Turning to U13C U52C A92G A141G, the self-cleavage was determined as 0.38.

Turning to U12C U29A A43G A92G A94U A138G, the self-cleavage came out at 0.

For A31U A107G A138G, the self-cleavage worked out at 1.44.

On to U26C U39C U73A A117G, for which the self-cleavage was found to be 2.04.

Regarding A6U U46C A67G U100C, the self-cleavage came out at 0.84.

On to G55A U108C C113U, for which the self-cleavage is 0.28.

Turning to A31G U73A G86A G88C C110A A140U, the self-cleavage stood at 0.05.

Consider U9C A50G U112C, for which the self-cleavage turned out to be 1.9.

As for U13C A107G U130C, the self-cleavage was 2.6.

In the case of U47C A79U U100C U119C, the self-cleavage worked out at 2.7.

In the case of G40A A59U U143C, the self-cleavage amounted to 0.41.

Consider U5C A69G U85C G86U, for which the self-cleavage came to 0.

For C3G U20C U85C, the self-cleavage came to 0.24.

As for U39C A50G A69G C145A, the self-cleavage came out at 0.

On to U23C G35A C38U U87C, for which the self-cleavage stood at 0.22.

Regarding U45C A65G U143A, the self-cleavage is 0.

In the case of U12G A57U A64G U91C, the self-cleavage was 0.56.

With A64U U108C U130A, the self-cleavage turned out to be 0.49.

Consider U1A U46C U85A, for which the self-cleavage worked out at 0.3.

As for U29C C68U U100C A136U, the self-cleavage stood at 0.46.

U20C A69U U81C G93A G126A: the self-cleavage was 0.07.

Turning to A30G U62A A69U C113U, the self-cleavage was determined as 0.1.

On to A57U U96C U132C, for which the self-cleavage was determined as 0.04.

C38G A50U U52C U130C A140G: the self-cleavage was 1.79.

Regarding G25A U26C A79G, the self-cleavage amounted to 1.64.

On to U26C A65G U73C, for which the self-cleavage was found to be 0.

As to A59G A121G A124G, the self-cleavage was 0.25.

Turning to A57G A59U U109C A124U A138G, the self-cleavage turned out to be 0.

As to U73C U132C A142G, the self-cleavage is 0.77.

The values are drawn from the RNAGym collection of RNA variant scans (doi:10.7554/elife.90254).
